# Assay results as given in the antibiotic and cytotoxicity screens of Wong et al. (2023).
# Some of the results follow.
# Tested on: HepG2
# Test: cytotoxicity call (relative viability < 0.9)
# Details: 10 µM
row,Structure (SMILES),cytotoxicity call
1,COCC(=O)N1C[C@@H](C)[C@H](OC)CN(C)C(=O)c2cc(NC(=O)c3cc(C)on3)ccc2OC[C@H]1C,inactive
2,Cc1cn2nc([C@@H]3CCCCN3C(=O)c3cc(Cl)ccc3NS(C)(=O)=O)cc2nc1N1CC[C@H](N)C1,inactive
3,C[C@@H]1CN([C@@H](C)CO)C(=O)c2cc(C#Cc3ccccc3F)cnc2O[C@@H]1CN(C)C(=O)Cc1cccnc1,inactive
4,C[C@@H]1CN([C@@H](C)CO)C(=O)c2cc(NC(=O)Cc3ccccc3)ccc2O[C@@H](C)CCCCO[C@@H]1CN(C)C(=O)c1ccccc1,inactive
5,C[C@H](CO)N1C[C@H](C)[C@@H](CN(C)C(=O)CCN2CCCCC2)Oc2ncc(C#Cc3ccccc3)cc2C1=O,inactive
6,Cn1cnc(S(=O)(=O)N2C[C@H](O)COC[C@H]3O[C@@H](CC(=O)NCc4ccc(F)cc4)CC[C@@H]32)c1,inactive
7,CCOC(=O)/C(=N/O)c1csc(N)n1,inactive
8,COc1ccc2c3c(n(c2c1)C)[C@@H](CO)N(C[C@]13CCN(CC1)C(=O)c1cccnc1)C(=O)c1cccnc1,inactive
9,CC(C)NC(=O)Nc1cccc2c1O[C@H](CN(C)C(=O)NC1CCCCC1)[C@@H](C)CN([C@@H](C)CO)C2=O,inactive
10,CCc1nc2ccc(C(=O)N3CCN(S(=O)(=O)CC)CC3)cn2c1N(C)C(=O)c1cccc(OC)c1,inactive
11,COc1ccc(NC(=O)Nc2ccc3c(c2)CC(=O)N([C@H](C)CO)C[C@@H](C)[C@H](CN(C)CC2CCCCC2)O3)cc1,inactive
12,C[C@@H]1CN([C@@H](C)CO)C(=O)CCCn2nncc2CO[C@H]1CN(C)C(=O)Nc1ccc(N2CCN(C)CC2)cc1,inactive
13,C[C@@H]1CCCCO[C@@H](CN(C)Cc2ccccc2)[C@@H](C)CN([C@@H](C)CO)C(=O)c2cc(NC(=O)c3ccccc3)ccc2O1,inactive
14,CCCC(=O)Nc1ccc2c(c1)C(=O)N(C)[C@@H]1CC[C@H](CC(=O)NCCN3CCCCC3)O[C@@H]1CO2,inactive
15,Cn1nnnc1SCC(=O)NC(C)(C)C,inactive
16,C[C@@H]1CN([C@H](C)CO)C(=O)c2cc(NS(=O)(=O)c3ccc(F)cc3)ccc2O[C@@H](C)CCCCO[C@@H]1CN(C)CC1CCCCC1,inactive
17,C[C@@H]1CN([C@H](C)CO)C(=O)Cc2cc(NC(=O)Nc3cccc4ccccc34)ccc2O[C@H]1CN(C)Cc1ccc(C(F)(F)F)cc1,inactive
18,C[C@@H]1CN([C@H](C)CO)C(=O)c2cc(NC(=O)C3CCCCC3)ccc2O[C@@H](C)CCCCO[C@@H]1CN(C)C(=O)Nc1ccc2c(c1)OCO2,inactive
19,C[C@@H]1CN([C@H](C)CO)C(=O)c2cccc(NC(=O)Nc3ccc(C(F)(F)F)cc3)c2O[C@@H]1CN(C)Cc1ccc(C(F)(F)F)cc1,active
20,COc1c(C)cnc2c1c(=O)n(CC(N)=O)c(=O)n2C,inactive
21,COc1ccc(CN(C)C[C@@H]2OCCCC[C@H](C)Oc3ccc(NS(=O)(=O)c4cccs4)cc3C(=O)N([C@H](C)CO)C[C@@H]2C)cc1,inactive
22,C[C@@H]1CN([C@H](C)CO)C(=O)c2cc(NS(=O)(=O)c3cccs3)ccc2O[C@@H](C)CCCCO[C@H]1CN(C)Cc1ccc(C(F)(F)F)cc1,active
23,O=C(N/N=C/[C@@H](O)[C@H](O)[C@H](O)CO)c1ccccn1,inactive
24,C[C@H](CO)N1C[C@H](C)[C@@H](CN(C)C(=O)Nc2cccc3ccccc23)OCCCC[C@H](C)Oc2ccc(NC(=O)Nc3ccccc3)cc2C1=O,inactive
25,C#CCN(C)CCCOc1ccc(Cl)cc1Cl.Cl,inactive
26,C[C@@H]1CN([C@H](C)CO)S(=O)(=O)c2ccc(C#CC3(O)CCCC3)cc2O[C@@H]1CN(C)C(=O)c1cccnc1,inactive
27,C[C@@H]1CN([C@@H](C)CO)C(=O)Cc2cc(NC(=O)CCN3CCOCC3)ccc2O[C@@H]1CN(C)CC1CCCCC1,inactive
28,COC1=C2C[C@@H](C)C[C@H](OC)[C@H](O)[C@@H](C)/C=C(\C)[C@H](OC(N)=O)[C@@H](OC)/C=C\C=C(/C)C(=O)NC(=CC1=O)C2=O,active
29,C[C@H](CO)N1C[C@H](C)[C@@H](CN(C)C(=O)Nc2cccc3ccccc23)Oc2ccc(NC(=O)C3CCCCC3)cc2C1=O,inactive
30,C[C@H](CO)N1C[C@H](C)[C@@H](CN(C)Cc2ccc(Cl)c(Cl)c2)OCCCC[C@H](C)Oc2ccc(NC(=O)Cc3ccccc3)cc2C1=O,active
